# Measurements taken from PubChem BioAssay AID686979 (National Center for Advancing Translational Sciences (NCATS), 2013).
# In all, about 420,000 compounds went through this assay and about 50,000 (12%) were called active. Inconclusive means that the source gave no clear call. Such entries were picked first, then a sample of the others. The call rests on the fitted dose curve; in most records, active means well fitted inhibition curve with a large enough effect; inconclusive means small, poorly fitted or top-dose-only effect; inactive means flat fitted curve, though single readings scatter. Potencies of inconclusive entries are left out as doubtful fits.
# Assay: qHTS for Inhibitors of human tyrosyl-DNA phosphodiesterase 1 (TDP1): qHTS in cells in presence of CPT; further: nearly all actives have a fitted effect of over 55% in size
# Settings: chicken DT40 Tdp1-/-;hTDP1 cells + 20 nM CPT, ATP luminescence, 48 h; activity change, negative = growth inhibition: at 46.2 µM (top of the series)
# Method in brief: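 Chicken DT40 Tdp1-/- cells stably complemented with human TDP1 were seeded at 400 cells/well in medium containing 20 nM camptothecin, exposed to pin-transferred compounds, and grown at 37 °C for at least 48 hr. Viability was read as ATP luminescence.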
# On the % scale 0 is the no-effect control and ±100 the full control effect; potency means the concentration at half of the fitted maximal effect; tags describe the fitted curve by direction and shape.
SMILES,Potency,"activity change, negative = growth inhibition"
O=C(c1cccs1)N1CCCC(c2nc3c(nnn3Cc3cccc(Cl)c3)c(=O)[nH]2)C1 (stereo unspecified),"inconclusive [inhibitor, single point]",
Cc1nc2cc(-c3ccccc3)nn2c(C)c1CCC(=O)NCc1cccc(Cl)c1,active: 25.9 µM,
c1ccc(Cc2nnc3sc(C4COc5ccccc5O4)nn23)cc1 (stereo unspecified),"inconclusive [inhibitor, single point]",
CCN(CC)CC(=O)Nc1sc(C)cc1C(=O)c1ccc(C)cc1,,inconclusive: -30.4% [inhibitor]
O=S(=O)(Nc1ccccc1N1CCCCC1)c1ccccc1,"inconclusive [inhibitor, single point]",
Cc1ccc2c(c1)NC(=O)C(CC(=O)Nc1ccc(CN3CCC(C)CC3)cc1)O2 (stereo unspecified),"inconclusive [inhibitor, single point]",
CC(C)(C)OC(=O)N[C@@H](Cc1ccccc1)c1nnc(S(=O)(=O)Cc2cccc(F)c2)o1,active: 1.3 µM,
Cc1ccc(S(=O)(=O)N2CCOCC2)cc1C(=O)N(Cc1nnc(-c2ccccc2Cl)o1)C1CC1,"inconclusive [inhibitor, single point]",
N#Cc1ccc(-c2ccc(F)cc2)nc1Oc1ccc(Cl)c(Cl)c1,"inconclusive [inhibitor, single point]",
FC(F)(F)c1ccc(Cl)c(-n2c(Cc3cccs3)n[nH]c2=S)c1,inactive,
CC1(C)N=C(N)N=C(N)N1c1ccc(OCC(=O)N2CCOCC2)cc1,"inconclusive [inhibitor, single point]",
Cc1nc2ccn(Cc3cccs3)c(=O)c2cc1C(=O)N1CCN(c2ccccc2)CC1,"inconclusive [inhibitor, single point]",
CCOC(=O)Cc1ccc(NC(=O)N2CC(C)Oc3ccc(Cl)cc32)cc1 (stereo unspecified),active: 16.4 µM,
COC(=O)c1ccc(OCC(=O)Nc2nn(-c3ccccc3)nc2C(N)=O)cc1,"inconclusive [inhibitor, partial curve, poor fit]",
COc1ccc(N(CC(=O)NCCc2ccccc2)C(=O)c2csnn2)cc1,inactive,
CC(=O)Nc1cc2c(c([N+](=O)[O-])c1C)C(C)(C)CC2(C)C,"inconclusive [inhibitor, single point]",
Cc1cc(C(=O)N/N=C/c2ccc(C)o2)c2ccccc2n1,active: 1.46 µM,
CN(CCNC(=O)Cn1c(=O)sc2ccccc21)Cc1ccccc1,"inconclusive [inhibitor, single point]",
O=c1[nH]c(CSc2nc3ccccc3[nH]2)nc2c1cnn2-c1ccccc1,active: 25.9 µM,
C=CCn1c(C)cc(C(=O)CSc2nnc3c(Cl)cc(Cl)cn23)c1C,"inconclusive [inhibitor, single point]",
Cc1ccc(NC(=O)N/C=C/c2ccco2)cc1,"inconclusive [inhibitor, partial curve]",
Cn1nc(-c2ccc(N3CCOCC3)c(NS(=O)(=O)c3ccc(Cl)cc3)c2)c2ccccc2c1=O,active: 18.4 µM,
CCNc1nc(NCC)nc(OCCNS(=O)(=O)c2ccccc2)n1,"inconclusive [inhibitor, partial curve]",
COc1ccc(CCNC(=O)c2ccc(CS(=O)(=O)c3ccc(Br)cc3)o2)cc1OC,active: 20.6 µM,

SMILES,Potency,"activity change, negative = growth inhibition"
C=CCSc1nc(N)c2c3c(sc2n1)CN(C)CC3,"inconclusive [inhibitor, single point]",
CC1CCCCC1NC(=O)CCn1ccc2cc(S(=O)(=O)N3CCCC3)ccc21 (stereo unspecified),"inconclusive [inhibitor, single point]",
Cc1ccc2c(c1)N(S(=O)(=O)c1ccc3c(c1)NC(=O)CC(=O)N3)CCO2,"inconclusive [inhibitor, single point]",
CN1C(=O)NC(c2ccccc2)C2=C1CN(c1ccc3ccccc3c1)C2=O (stereo unspecified),"inconclusive [inhibitor, partial curve]",
C/C(=N\NC(=O)c1ccc(Cl)c(Cl)c1)c1ccccn1,active: 0.411 µM,
COc1ccc(Oc2ccccc2/C=C/C(=O)O)cc1,inactive,
COc1ccc(C(=O)CN2CC(C)SC2=Nc2ccc(Cl)cc2)cc1 (stereo unspecified),"inconclusive [inhibitor, single point]",
COc1ccc(/C=C(/NC(=O)c2ccco2)C(=O)N2CCOCC2)cc1,inactive,
CC(C(=O)NC1CCCC1)N1CCN(S(=O)(=O)c2ccccc2Cl)CC1 (stereo unspecified),"inconclusive [inhibitor, single point]",
COc1ccc(Cn2ccnc2SCC(=O)Nc2ccc(F)cc2F)cc1,"inconclusive [inhibitor, single point]",
CC(=O)Nc1ccc(-c2ccnc3c2CC(C)(C(=O)Nc2ccc(F)c(Cl)c2)O3)cc1 (stereo unspecified),"inconclusive [inhibitor, single point]",
Cc1cnc(C)c(-c2cccc3c2OC(CNC(=O)/C=C/c2ccncc2)C3)n1 (stereo unspecified),,inactive: -6.17% [at 9.04 µM]
CN(C)CCCNc1cc(N2CCN(C)CC2)ncn1,inactive,
CCOC(=O)N1CCN(Cc2nc3cc(NC(=O)c4ccccc4OC)ccc3n2C(C)C)CC1,active: 3.66 µM,
CSc1nc(Cl)c(Br)c(Nc2c[nH]c(=O)[nH]c2=O)n1,"inconclusive [inhibitor, partial curve]",
C/C(NCc1cccnc1)=C(\C#N)C(=O)NCc1ccccc1,inactive,
Cc1cccc(OCCOCCN2CCOCC2)c1C,inactive,
COCCNC(=O)c1ccc(CSCc2cccc(Cl)c2)o1,"inconclusive [inhibitor, single point]",
Cc1ccc(SCC(=O)Nc2cccc(-c3nnc(-c4ccco4)o3)c2)cc1,active: 18.4 µM,
CCCCC(=O)Nc1nn(CCC)c2nc3ccccc3cc12,"inconclusive [inhibitor, single point]",
Fc1ccc2nc3[nH]c4ccccc4c3nc2c1,"inconclusive [inhibitor, single point]",
COc1ccc2[nH]c(=O)c(CN(C(=O)c3cccnc3)c3ccc(C)cc3C)cc2c1,"inconclusive [inhibitor, single point]",
CCCc1cc(CNC(=O)C2CCC(=O)N(Cc3ccccc3OC)C2)on1 (stereo unspecified),inactive,
O=C(OCc1ccc([N+](=O)[O-])cc1Cl)c1cnccn1,inactive,

SMILES,Potency,"activity change, negative = growth inhibition"
CNC[C@@H]1OCc2ccccc2-c2c(n(C)c3ccccc23)C(=O)N([C@H](C)CO)C[C@@H]1C,"inconclusive [inhibitor, single point]",
Cc1ccc2nc3c(cc(C#N)c(=O)n3-c3nccs3)c(=O)n2c1,inactive,
CCN(CC)S(=O)(=O)c1cccc(C(=O)NC(Cc2c[nH]c3ccccc23)c2nnc3n2CCC3)c1 (stereo unspecified),inactive,
COc1ccccc1N(C)S(=O)(=O)c1ccc(C(=O)Nc2cccc(Br)c2)cc1,"inconclusive [inhibitor, single point]",
CN(c1ccccc1)S(=O)(=O)c1cccc(C(=O)NC2CCCC2)c1,"inconclusive [inhibitor, single point]",
COc1ccc(CNC(=O)CCc2c(C)c3cc4c(C)coc4cc3oc2=O)cc1,"inconclusive [inhibitor, partial curve]",
O=C(Nc1ccc2nc3n(c(=O)c2c1)CCCCC3)C(=O)N1CCN(c2ccc(F)cc2)CC1,"inconclusive [inhibitor, partial curve, poor fit]",
N#Cc1cc2[nH]c3ccccc3c2[n+](-c2ccc([N+](=O)[O-])cc2)c1N,inactive,
CCOc1ccccc1-n1c(SCC(=O)Nc2nccs2)nnc1-c1ccoc1C,"inconclusive [inhibitor, single point]",
CCOc1ccc(N2CC(O)(c3ccc(F)cc3)[N+]3=C2CCCC3)cc1 (stereo unspecified),inactive,
CC(CNc1nc2ccc(Cl)cc2n2cnnc12)c1ccccc1 (stereo unspecified),"inconclusive [inhibitor, partial curve]",
Cc1ccc(-n2nc3c(=O)n(CC(=O)NCc4ccco4)nc(C)c3c2C)cc1,"inconclusive [inhibitor, single point]",
CC(C)(C)c1cc(C(=O)NN)n(Cc2ccc(Cl)cc2Cl)n1,,inconclusive: -32.2% [inhibitor]
COc1cc2c(cc1OC)CN(C(=O)c1ccc3nc[nH]c3c1)CC2,active: 3.26 µM,
Cc1ccccc1NC(=S)N(Cc1ccccn1)Cc1ccccc1Cl,"inconclusive [inhibitor, single point]",
CN(C)/C=C1\C(=O)NN=C1c1ccccc1,inactive,
O=C(Nc1ccccc1OCc1ccccc1)c1ccccc1Br,inactive,
COC(=O)c1scc(C)c1NC(=O)C1CCCCC1,inactive,
O=C1CC(N2CCN(c3ccc(Cl)cc3)CC2)C(=O)N1c1ccc(F)cc1 (stereo unspecified),inactive,
COc1ccc(S(=O)(=O)NCCc2csc(-c3cccnc3)n2)cc1,active: 14.6 µM,
Cc1ccc(C(=O)Nc2ccccc2C(=O)O)cc1NC(=O)COc1c(C)cccc1C,"inconclusive [inhibitor, single point]",
COc1cccc(/C=C2/SC(=S)N(CC(=O)Nc3nnc(C)s3)C2=O)c1,"inconclusive [inhibitor, single point]",
O=C(Nc1ccc(F)cc1F)c1cccc(C(=O)Nc2ccc(F)cc2F)n1,"inconclusive [inhibitor, single point]",
